These results are taken from PubChem BioAssay AID1460 (National Center for Advancing Translational Sciences (NCATS), 2008).

Screen size: about 270,000 compounds; about 5,800 (2.1%) were called active. Another 16% or so got no clear call; they are omitted. Calls follow the shape of the dose curve; as a rule, active = well fitted inhibition curve with a large enough effect; inconclusive = small, poorly fitted or top-dose-only effect; inactive = flat fitted curve, though single readings scatter. The entries are a selection whose mix differs from that of the whole data set. Some compounds were tested as several samples or in several runs, with calls that do not always agree.
% is scaled to controls: 0 for no effect and ±100 for the full control effect; potency is read from the fitted curve at half-maximal effect.

Chain of UniProt P10636 (P10636 whole entry, looked up, the tested form may be a part): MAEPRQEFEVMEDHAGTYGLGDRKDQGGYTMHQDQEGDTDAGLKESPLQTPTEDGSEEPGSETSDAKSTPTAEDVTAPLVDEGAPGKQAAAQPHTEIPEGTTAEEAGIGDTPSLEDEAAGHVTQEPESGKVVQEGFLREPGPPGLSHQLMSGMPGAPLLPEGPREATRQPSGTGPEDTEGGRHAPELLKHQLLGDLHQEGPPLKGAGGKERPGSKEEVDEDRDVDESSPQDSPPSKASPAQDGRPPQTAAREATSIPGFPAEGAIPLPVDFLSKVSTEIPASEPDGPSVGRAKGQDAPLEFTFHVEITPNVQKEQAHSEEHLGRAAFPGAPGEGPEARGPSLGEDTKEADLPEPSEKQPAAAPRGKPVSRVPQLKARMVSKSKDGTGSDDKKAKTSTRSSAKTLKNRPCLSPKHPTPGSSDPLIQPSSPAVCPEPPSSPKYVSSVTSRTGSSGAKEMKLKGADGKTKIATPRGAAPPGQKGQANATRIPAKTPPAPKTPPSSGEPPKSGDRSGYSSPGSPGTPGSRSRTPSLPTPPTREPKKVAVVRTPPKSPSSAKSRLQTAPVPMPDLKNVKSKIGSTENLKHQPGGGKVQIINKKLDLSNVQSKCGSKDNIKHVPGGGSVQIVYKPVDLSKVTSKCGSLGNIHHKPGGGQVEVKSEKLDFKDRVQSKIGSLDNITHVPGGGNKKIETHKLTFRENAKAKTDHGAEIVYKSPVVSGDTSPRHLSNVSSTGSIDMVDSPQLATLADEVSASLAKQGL

This test has as its target Microtubule-associated protein tau (Homo sapiens) (UniProt P10636). Nature of the test: qHTS for Inhibitors of Tau Fibril Formation, Thioflavin T Binding. Also: nearly all actives have a fitted effect of over 55% in size. The note with it: recombinant tau K18 P301L (four-repeat tau fragment), heparin-induced fibrillization, ThT fluorescence; series mostly up to 57.4 µM; activity, negative = inhibition: at the top concentration. Put shortly:
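Tau K18 P301L fragment (15 uM unlabeled plus 0.24 uM Alexa 594-labeled) in 100 mM sodium acetate pH 7 with compound, fibrillization induced by 20 uM heparin for 6 hr at 37 C. Thioflavin T (30 uM) added, fluorescence read after 1 hr (ex 450, em 510 nm).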
As to `O=C1CSC(=S)N1Cc1cccnc1`, the Potency was active: 31.6 µM.
For `C[C@@H]1CC[C@]2(C(=O)O)CC[C@]3(C)C(=CCC4[C@@]5(C)C[C@@H](O)[C@H](O)[C@@](C)(CO)C5CC[C@]43C)C2[C@H]1C` (some centres undefined), the “activity, negative = inhibition” value is inactive: -15.6%.
As for `Cc1cc(N2CCN(C)CC2)nc2ccc(NC(=O)Nc3cccc(Cl)c3)cc12`, the Potency was active: 14.1 µM.
`COC(=O)c1[nH]c2ccc(Br)cc2c1NC(=O)Oc1ccccc1`: the Potency was active: 15.8 µM.
As for `COc1ccc(C(C)n2c(C)c3c(C)nnc(C)c3c2C)cc1` (centres undefined), the “activity, negative = inhibition” value was inactive: -10.5%.
For the compound `COC(=O)CCC(=O)OC1(C)C(=O)C2=CN(CCCOC(C)C)C(c3ccc(OC)cc3)=CC2=C(Br)C1=O` (centres undefined), the Potency was active: 15.8 µM.
As to `CC(C)=CCC/C(C)=C/COc1ccc2ccc(=O)oc2c1`, the Potency entry was “inactive”.
Regarding `COC(=O)c1c(-c2cccs2)csc1NC(=O)c1cc(OC)c(OC)c(OC)c1`, the Potency is active: 11.2 µM.
In the case of `COC(=O)[C@@]1(Cc2ccc(F)cc2)[C@H]2c3cc(C(=O)N(C)C)n(Cc4ccccn4)c3C[C@H]2CN1C(=O)c1ccccc1`, the “activity, negative = inhibition” value is inactive: -8.21%.
Take `O=C(N/N=C/C(Cl)=C\c1ccccc1)c1cnccn1`: the “activity, negative = inhibition” value is inactive: -7.23%.
For the compound `O=C(C1=C[C@H](c2ccccc2)C[C@H](OCc2ccc(CO)cc2)O1)N1CCCCCCC1`, the “activity, negative = inhibition” value is inactive: -16.2%.
For `CO[C@@]12C[C@@H](COC(=O)c3cncc(Br)c3)CN(C)[C@H]1Cc1cn(C)c3cccc2c13`, the “activity, negative = inhibition” value is inactive: -19.7%.
On to `CCO[C@H]1OC(C(=O)Nc2ccccc2)=C[C@@H](c2coc3ccccc3c2=O)[C@@H]1CCCO`, for which the “activity, negative = inhibition” value was inactive: -15.9%.
On to `C=CC[C@H]1Cc2c(cccc2[N+](=O)[O-])[C@H](CC=C)N1`, for which the “activity, negative = inhibition” value was inactive: -3.34%.
Still for that read-out and setting: with `CC(C)C1=CC2=CC[C@H]3[C@](C)(C(=O)O)CCC[C@]3(C)C2CC1` (some centres undefined) the figure was inactive: -15.8%.
On to `C#CCCCCCCCCCCCCCCCC(=O)O`, for which the Potency result was “inactive”.
In the case of `CCN(c1ccccc1)S(=O)(=O)c1nnc(NC(=O)c2ccccc2OC)s1`, the Potency is active: 3.16 µM.
In the case of `C=CCN1c2ccccc2[C@]23C[C@@H](C(=O)OC)N(C(=O)CC(C)C)C2=NC(C(=O)OC)=C(C(=O)OC)[C@H]13`, the activity, negative = inhibition was inactive: 0.924% [at 11.5 µM].
Take `CCCCC1=CC2=CC(=O)C(C)(OC(=O)CC)C(=O)C2=CN1Cc1ccc2c(c1)OCO2` (centres undefined): the activity, negative = inhibition is inactive: -7.24% [at 11.5 µM].
Take `COc1ccc2nc(N3C(=O)/C(=C/c4ccc(Cl)cc4)NC3=S)sc2c1`: the Potency is active: 1.12 µM.
As to `CC(C)(S)[C@H](N)C(=O)O`, the “activity, negative = inhibition” value was inactive: -0.594%.
The same measure, in the same setting: with `O=C1c2ccccc2CCC1CNCCc1ccc(O)cc1` (centres undefined) the figure was inactive: -16.3%.
For `COc1ccc(Nc2nc3ccc(OC)cc3s2)cc1`, the Potency was active: 12.6 µM.
Turning to `Oc1ccc(/C(Cc2ccc3ccccc3n2)=N\Nc2ccccc2)c(O)c1`, the Potency was active: 11.2 µM.
`COC(=O)Cn1c(=O)c2c(n(Cc3ccccc3)c1=O)N/C(=C/c1ccc(Br)cc1)C2=O`: the Potency was active: 15.8 µM.
As to `CC1=C(C(=O)O)N2C(=O)[C@@H](NC(=O)[C@H](N)c3ccccc3)[C@H]2SC1`, the “activity, negative = inhibition” value is inactive: -18.2%.
Regarding `CC1(OC(=O)C2CCCC2)C(=O)C=C2C=C(c3ccsc3)N(Cc3ccccc3)C=C2C1=O` (centres undefined), the activity, negative = inhibition is inactive: 2.55% [at 11.5 µM].
Take `COC(=O)CCCC1=CC2=CC(=O)C(C)(OC(=O)c3cccs3)C(=O)C2=CN1CCc1ccccn1` (centres undefined): the activity, negative = inhibition was inactive: -8.84% [at 11.5 µM].
Turning to `CC(=O)C1=C(C)N(Cc2ccccc2)C(=O)N[C@H]1c1cccc(C(F)(F)F)c1`, the Potency result was “inactive”.
With `CCC1=C(OC(=O)N(CC)CC)N2C(=O)OC(=NCCc3c[nH]c4ccccc34)[C@]2(C)[C@H]2C1=CC[C@H]1C(=O)N(CC(=O)OC)C(=O)[C@H]12`, the “activity, negative = inhibition” value is inactive: -9.55%.
As to `Cn1sc(=O)c2cc(S(=O)(=O)NC3CC3)ccc21`, the Potency is active: 12.6 µM.
For the compound `C[C@@H](C(=O)NCC1CC1)[C@H]1C[C@]1(C)[C@H](NC(=O)OCc1ccccc1)c1ccccc1`, the “activity, negative = inhibition” value was inactive: -18.1%.
With `COc1ccc2c(c1)CC/C(=C\Nc1ccc3c(c1)OCO3)C2=O`, the Potency was active: 1.26 µM.
With `Cc1ccc(/C=C/C(=O)Nc2ccc(S(N)(=O)=O)cc2)o1`, the “activity, negative = inhibition” value was inactive: -15.5%.
`CC(/C=N\N1CCN(Cc2ccc(C)cc2)CC1)=C\c1ccccc1`: the “activity, negative = inhibition” value was inactive: 1.16%.
Consider `CCC1(O)CC2CN(CCc3c([nH]c4ccccc34)[C@@](C(=O)OC)(c3cc4c(cc3OC)N(C=O)C3[C@]45CCN4CC=C[C@@](CC)([C@@H](OC(C)=O)[C@]3(O)C(=O)OC)[C@H]45)C2)C1` (some centres undefined), for which the “activity, negative = inhibition” value is inactive: 3.92%.
`CCc1c(C)sc(NC(=O)c2cc(-c3ccc(OC)c(OC)c3)on2)c1C#N`: the “activity, negative = inhibition” value was inactive: -6.95%.
As for `COC(=O)C/C=C\[C@@H](C)[C@@H](/C=N\OC[C@@H]1O[C@H](c2ccccc2)C=C[C@@H]1Oc1ccc(OC)cc1)OC`, the activity, negative = inhibition is inactive: -13.5% [at 11.5 µM].
For the compound `Cc1ccc(C(=O)N/C(=C\C=C\c2ccccc2)C(=O)NCc2ccco2)cc1`, the “activity, negative = inhibition” value was inactive: -6.91%.
In the case of `C=CCN1CCc2c(cc(O)c(O)c2Cl)C(c2ccccc2)C1` (centres undefined), the Potency entry was “inactive”.
Take `CCOC(=O)C1=C[C@@]2(CC)CCCN3CCc4c(n1c1ccccc41)[C@H]32`: the “activity, negative = inhibition” value is inactive: -6.82%.
Regarding `CC1(C)[C@@H](O)CC[C@]2(C)[C@H]3C(=O)C=C4[C@@H]5C[C@@](C)(C(=O)O)CC[C@]5(C)CC[C@@]4(C)[C@]3(C)CC[C@@H]12`, the “activity, negative = inhibition” value is inactive: -13.4%.
Regarding `Oc1ccc([C@@H]2CNCCc3c2cc(O)c(O)c3Cl)cc1`, the “activity, negative = inhibition” value is inactive: -25.1%.
Take `CC1=NN(c2ccccc2)C(=O)/C1=C/c1ccc[nH]1`: the Potency was active: 12.6 µM.
In the case of `CC(=O)Nc1sc(N/N=C/c2ccc(N(C)C)cc2)nc1-c1ccc(C)cc1`, the Potency was active: 15.8 µM.
In the case of `COc1ccc(-n2c(CCC(=O)O)ccc2-c2ccccc2)cc1`, the “activity, negative = inhibition” value is inactive: -6.66%.
As for `CCO[C@H]1OC(C(=O)NC2CC2)=C[C@@H](c2ccccc2)[C@@H]1CCCO`, the “activity, negative = inhibition” value is inactive: 0.168%.
On to `O=C(O)CCNc1cc2ccccc2cc1C(=O)O`, for which the Potency is active: 15.8 µM.
Consider `CN=C1S/C(=C\c2cn(CC(=O)OC)c3ccccc23)C(=O)N1C`, for which the “activity, negative = inhibition” value is inactive: -8.37%.
